Source: PubChem BioAssay AID1508642 (National Center for Advancing Translational Sciences (NCATS), 2021)
Screen size: about 43,000 compounds; about 200 (0.47%) were called active. Another 12% or so got no clear call; they are omitted. Calls follow the shape of the dose curve; as a rule, active = well fitted cell-killing curve with a large enough effect; inconclusive = small, poorly fitted or top-dose-only effect, or effect the other way; inactive = flat fitted curve, though single readings scatter. Some of the results follow.

Test: Cell viability qHTS assay in S16 Pmp22-F2sN cells; also: nearly all actives have a fitted effect of over 65% in size
Conditions: S16 Pmp22-F2sN Schwann cells (luciferase reporters placed in the Pmp22 gene) viability, CellTiter-Glo, 24 h; series mostly up to 57.5 µM; activity change, negative = cytotoxicity: at the top concentration
Procedure, shortened: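 CellTiter-Glo counter-screen, qHTS, 1536-well. Cells: S16(c9) Pmp22-F2sN, 500-1,000/well in DMEM + 10% FBS. Cpd 23 nL pin transfer, 24 h, 37C/5% CO2. Read: luminescence, CCD imager.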
% is scaled to controls: 0 for no effect and ±100 for the full control effect.

Row | SMILES | activity change, negative = cytotoxicity
1 | COc1ccc(CN2C(=O)N(c3cccc(C)c3)C(=O)C2CC(=O)Nc2ccc(F)cc2)cc1OC (configuration not stated) | inactive: -1.93%
2 | Cc1ccc(NC(=O)CN2C(=O)COc3ccc(S(=O)(=O)N4CCCCC4)cc32)cc1Cl | inactive: -3.82%
3 | CCOC(=O)c1cc(NC(=O)c2ccc(C)cc2)c(=O)n2c1oc1ccccc12 | inactive: 16%
4 | COCCCNC(=O)Cn1c(=O)n(-c2ccccc2)c(=O)c2c1c1cc(OC)ccc1n2C | inactive: 6.8%
5 | CCOc1ccc(C2c3[nH]c4ccccc4c3CCN2C(=O)CSc2ccccc2)cc1 (configuration not stated) | inactive: -14%
6 | Cc1ccc(-n2nc(C(=O)N3CCCCC3)c(=O)n(C)c2=O)cc1 | inactive: 4.11%
7 | CCCNC(=O)C1CCC(Cn2c(=O)c3sccc3n(CC(=O)N(CC)CC)c2=O)CC1 (configuration not stated) | inactive: 14.3%
8 | COc1ccc(NC(=O)Cn2nnnc2-c2ccccc2F)c(C)c1 | inactive: 1.05%
9 | COC(=O)c1ccc(NC(=O)CC2C(=O)N(c3cccc(F)c3)C(=O)N2CC(C)C)cc1 (configuration not stated) | inactive: 0.0408%
10 | COc1cccc(C(=O)N(Cc2ccc(N(C)C)cc2)Cc2ccco2)c1 | inactive: 15.7%
11 | CCc1ccc(CNC(=O)CN2C(=O)CSc3ccc(S(=O)(=O)N4CCOCC4)cc32)cc1 | inactive: 0.389%
12 | O=C(CSc1nc2c([nH]c3ccccc32)c(=O)n1-c1ccc(Cl)cc1)NCc1ccccc1 | inactive: 6.62%
13 | COc1cc(C(=O)Nc2sc3c(c2C(N)=O)CCC(C)C3)cc(OC)c1OC (configuration not stated) | inactive: 17.3%
14 | CCn1c(=O)c(=O)n(CC)c2cc(N3CCCCC3)c(NC(=O)c3ccc(OC)c(OC)c3)cc21 | inactive: -18.5%
15 | COc1ccc(CCNC(=O)CSc2cc(=O)n(C)c3ccccc23)cc1OC | inactive: 3%
16 | CCc1ccc(S(=O)(=O)NCc2cccn2Cc2cccc(C)c2)cc1 | inactive: -22.1%
17 | CN1CCN(C(CNC(=O)C(=O)Nc2ccccc2C#N)c2ccc3c(c2)OCO3)CC1 (configuration not stated) | inactive: 3.37%
18 | CC1=C(C(=O)Nc2cc(Cl)ccc2C)C(c2ccccc2F)n2ncnc2N1 (configuration not stated) | inactive: 1.95%
19 | Cc1cccc(N2CCN(c3ncnc4onc(C)c34)CC2)c1C | inactive: 8.34%
20 | COC(=O)c1cccc(Nc2c(-c3ccc(SC)cc3)nc3nc[nH]n23)c1 | inactive: -10.1%
21 | CCc1ccc(C2N=C(N)Nc3nc4ccccc4n32)cc1 (configuration not stated) | inactive: -15.5%
22 | COc1ccc(CCNC(=O)Cn2c(=O)c3sccc3n(CC(=O)Nc3cccc(C(F)(F)F)c3)c2=O)cc1OC | inactive: -3.7%
23 | O=C(NCc1cccc(Cl)c1)c1cnc(N2CCCCC2)c2ccccc12 | inactive: -2.11%
24 | Cc1cccc(S(=O)(=O)c2cn(Cc3ccc(F)cc3)c3cc(N4CCCCC4)c(F)cc3c2=O)c1 | inactive: 1.46%
25 | O=C(CCCCCn1c(=O)[nH]c2ccccc2c1=O)NCCc1ccccc1 | inactive: 1.82%

Row | SMILES | activity change, negative = cytotoxicity
26 | COc1ccc(Cl)cc1NC(=O)CN(c1cccc(C)c1C)S(C)(=O)=O | inactive: 9.76%
27 | CCCN1CCN(c2ncc3c(n2)CCN(Cc2ccc(OC)c(OC)c2OC)C3)CC1 | inactive: 12.3%
28 | Cc1ccc(NC(=O)Cn2nc(-c3ccc(F)cc3)c3cnc4ccc(C)cc4c32)cc1 | inactive: 14.6%
29 | COc1ccccc1-c1noc(-c2ccc(N(C)Cc3ccccc3)c([N+](=O)[O-])c2)n1 | inactive: 9.65%
30 | CCCCN(CC)C(=O)CCn1c(=O)c2cccn2c2cccnc21 | inactive: 21.8%
31 | Cc1ccc(NC(=O)CN(C)S(=O)(=O)c2ccc3c(c2)CCC(=O)N3)c(C)c1 | inactive: -3.8%
32 | CCCCNC(=O)CN1C(=O)CSc2ccc(S(=O)(=O)N3CCC(C)CC3)cc21 | inactive: 11.4%
33 | CC(=O)c1cccc(N(C(=O)Cn2nnc3ccccc32)C(C(=O)NCc2ccccc2)c2ccc(F)cc2)c1 (configuration not stated) | inactive: 1.51%
34 | COc1cccc(NC(=O)CN(Cc2ccccc2)S(=O)(=O)c2ccc3nc(C)sc3c2)c1 | inactive: -27.6%
35 | CCOC(=O)c1c(S(=O)(=O)NCC(=O)Nc2ccc(Cl)c(C(F)(F)F)c2)c(C)n(C)c1C | inactive: -22.3%
36 | CCCCc1nn2c(=O)cc(COC(=O)c3cccc(NC(=O)c4cccc(C)c4)c3)nc2s1 | inactive: 3.06%
37 | CCOc1ccc(CNCc2c(C(=O)O)c(C)n(Cc3ccc(F)cc3Cl)c2C)cc1 | inactive: -4.73%
38 | CCN1CCN(C(=O)c2ccc3c(c2)N(Cc2ccccc2)C(=O)c2ccccc2S3=O)CC1 (configuration not stated) | inactive: 10.5%
39 | Cc1nn(CCCC(=O)NCc2cccc(F)c2)c(=O)c2nn(-c3ccccc3)c(C)c12 | inactive: -0.335%
40 | COc1ccc(OC)c(-c2nc(C(N)=O)c3c(n2)n(-c2ccc4c(c2)OCO4)c(=O)n3C)c1 | inactive: 20.5%
41 | COc1ccc(Cl)cc1C(=O)Nc1ccc2oc(-c3ccc(C(C)(C)C)cc3)nc2c1 | inactive: 13.9%
42 | CCCn1ccc2c(OCC(=O)NCc3ccc(F)cc3)cccc2c1=O | inactive: -3.67%
43 | Cc1ccc(-c2nc(S(=O)(=O)c3ccc(Cl)cc3)c(N3CCCCC3)o2)cc1 | inactive: 1.67%
44 | COc1ccc(CNC(=O)Cn2nnc(-c3ccccc3F)n2)cc1 | inactive: -4.11%
45 | CCc1cc2c(cc3c(=O)n(CC(=O)N4CCCCC4)nc(CC)n32)s1 | inactive: 18.6%
46 | CC(C)c1nnc(NC(=O)c2nc(SCc3ccc(F)cc3)ncc2Cl)s1 | inactive: 7.97%
47 | CCCSc1ncc(Cl)c(C(=O)Nc2sc3c(c2C(=O)NCC)CCCC3)n1 | inactive: 14.5%
48 | Cc1cc2n(n1)CCCN2C(=O)Nc1ccc(Cl)cc1 | inactive: -23.8%
49 | CCCSC1=NC2(CCN(C(=O)NC3CCCCC3)CC2)N=C1c1ccccc1 | inactive: 3.15%
50 | COc1cc(Cl)ccc1OC(=O)c1cn(-c2ccccc2OC)c(=O)c2ccccc12 | inactive: 5.73%

Row | SMILES | activity change, negative = cytotoxicity
51 | CC1C(=O)Nc2ccc(S(=O)(=O)Nc3ccccc3Br)cc2NC1=O (configuration not stated) | inactive: -4.38%
52 | CC(C)CCNC(=O)c1ccc(Cn2c(SCC(=O)NC(C)C)nc3ccccc3c2=O)cc1 | inactive: 8.57%
53 | Cc1ccc(Cl)cc1N1CCN(C(=O)c2cccn2-c2nnc(N3CCCCC3)s2)CC1 | inactive: 5.26%
54 | Cc1ccc(C)c(S(=O)(=O)c2nnn3c2nc(NCc2cccs2)c2sccc23)c1 | inactive: -14.1%
55 | COc1ccc2c(c1)c1c(c(=O)n(-c3ccccc3)c(=O)n1CC(=O)Nc1ccc(F)cc1)n2C | inactive: 2.02%
56 | CCc1ccc(-n2c(SCC(=O)NC(C)CC)nc3n[nH]c(C)c3c2=N)cc1 (configuration not stated) | inactive: -17.2%
57 | COc1ccc(N2CC(NC(=O)c3ccc4c(c3)OCO4)CC2=O)cc1OC (configuration not stated) | inactive: 7.83%
58 | Cc1c(-c2ccccc2)c(=O)oc2c(CN3CCN(C)CC3)c(O)ccc12 | inactive: 11.6%
59 | Cc1ccc2nc(Cl)c3cc(C(=O)NCCCN4CCC(C)CC4)sc3c2c1 | inactive: 15.1%
60 | CCC(CC)C(=O)Nc1ccc(C(=O)OCc2cc(=O)n3nc(C4CC4)sc3n2)cc1 | inactive: -6.23%
61 | CCC(=O)Nc1ccc(C)cc1-c1nc2ccccc2n(C(C)C(=O)Nc2ccccc2CC)c1=O (configuration not stated) | inactive: -6.8%
62 | CCOc1ccc(-c2noc(CSc3nnc(-c4ccccc4)n3-c3ccccc3)n2)cc1 | inactive: 5.28%
63 | O=C(CCn1c(=O)c2cccn2c2cccnc21)NCc1ccccc1Br | inactive: 17%
64 | Cc1ccc(N(C)S(=O)(=O)c2ccc3c(c2)C(C)(C)C(=O)N3C)cc1C | inactive: -25.2%
65 | O=C(NCc1ccccc1Cl)c1cccn1-c1nnc(N2CCCCC2)s1 | inactive: 0.0258%
66 | CCC(C(=O)N1CCN(c2cc(Cl)ccc2C)CC1)n1nc(C)c2sc3ccccc3c2c1=O (configuration not stated) | inactive: 13.1%
67 | CCN(CC)CCCNC(=O)CCCn1c(=O)[nH]c2ccc(Br)cc2c1=O | inactive: 1.61%
68 | CC(=O)c1ccccc1NS(=O)(=O)c1cc2c(cc1C)NC(=O)CO2 | inactive: 1.65%
69 | Cc1ccc(-n2nc(C(=O)N3CCN(c4ccccc4F)CC3)c3c4ccccc4n(C)c3c2=O)cc1 | inactive: 9.08%
70 | COc1cccc(CNC(=O)CN2N=C(c3ccc(C)cc3)CCC2=O)c1 | inactive: 6.23%
71 | CC(C)CC(=O)NCC(c1ccc2c(c1)OCO2)N1CCN(c2ccccc2F)CC1 (configuration not stated) | inactive: 0.246%
72 | CCOC(=O)c1ccc(NC(=O)Nc2ccc3snnc3c2)cc1 | inactive: 0.413%
73 | Cc1ccccc1N(C)C(=O)c1noc2c1COc1ccccc1-2 | inactive: -8.63%
74 | Cc1cccc(-c2nc(SCC(=O)NCC3CCCO3)c3c(=O)n(C)c(=O)n(C)c3n2)c1 (configuration not stated) | inactive: -6.65%
75 | Cc1c(Cl)cccc1NC(=O)Cn1nc(C(F)(F)F)c2c1CCC2 | inactive: 18.4%

Row | SMILES | activity change, negative = cytotoxicity
76 | Cc1cc(C)c(NC(=O)Cn2c(=O)n(CCc3ccccc3)c(=O)c3ccccc32)c(C)c1 | inactive: 12.5%
77 | COc1ccc(OC)c(CNC(=O)c2ccccc2NC(=O)c2nsc3ccccc23)c1 | inactive: -0.155%
78 | CCOc1ccccc1C(=O)N1CCN(CCc2ccccn2)CC1 | inactive: 3%
79 | Cc1ccc(C2=Nc3ccccc3N(CC(=O)Nc3ccccc3C)C(=O)C2)cc1C | inactive: -29.6%
80 | Cc1ccc(CNC(=O)NC2COc3ccccc3C2)cc1 (configuration not stated) | inactive: 6.39%
81 | CC1=C(C(=O)Nc2ccccc2)C(c2cccc(O)c2)n2nc(-c3ccccc3Cl)nc2N1 (configuration not stated) | inactive: 5.28%
82 | Cn1cc(S(=O)(=O)N2CCCCCC2)cc1C(=O)NCc1ccc(Cl)cc1 | inactive: 3.45%
83 | Cc1onc(-c2ccccc2Cl)c1C(=O)Oc1ccc(Br)cc1 | inactive: 12.5%
84 | COc1ccc(CCNC(=O)c2c(C)oc3nc(C)nc(N4CCOCC4)c23)cc1OC | inactive: 3.24%
85 | Cc1cc(C)n(-c2nc3ccccc3nc2Nc2cccc(C(=O)NCCc3ccccc3)c2)n1 | inactive: -3.15%
86 | Cc1ccc(NC(=O)C2CCCN(S(=O)(=O)c3cccc4cccnc34)C2)c(Br)c1 (configuration not stated) | inactive: -20.8%
87 | CCOC(=O)c1ccc(NC(=O)C2Cc3ccccc3C(=O)O2)cc1 (configuration not stated) | inactive: 6.55%
88 | Brc1ccc(CNCCCSc2nnnn2-c2ccccc2)cc1 | inactive: -0.757%
89 | Cc1cccc(-c2noc(CNC(=O)c3ccco3)n2)c1 | inactive: -0.722%
90 | Cc1ccc(-n2nnnc2CNC(=O)c2ccc(F)cc2)cc1C | inactive: -2.3%
91 | CC(=O)N(Cc1cccnc1)c1nc2ccc(F)cc2s1 | inactive: -16.5%
92 | COc1cccc2cc(-c3cn4c(n3)sc3cc(F)ccc34)c(=O)oc12 | inactive: -0.347%
93 | COc1ccc(C(=O)NCC(c2cccs2)S(=O)(=O)c2ccc(F)c(C)c2)cc1 (configuration not stated) | inactive: 0.664%
94 | CC(=O)Nc1ccc(C)cc1-c1nc2ccccc2n(CC(=O)c2ccc(Cl)cc2)c1=O | inactive: 7.32%
95 | Cc1ccc(CNC(=O)c2c(-c3ccccc3Cl)noc2C)o1 | inactive: -2.13%
96 | Cc1coc2cc3oc(=O)c(CC(=O)NCc4cccc(Cl)c4)c(C)c3cc12 | inactive: 1.95%
97 | Cc1cccc(NC(=O)COc2ccc(-c3nn(C)c(=O)c4ccccc34)cc2)c1 | inactive: 25.9%
